In PubChem BioAssay AID2675 (National Center for Advancing Translational Sciences (NCATS), 2010):
Screen size: about 280,000 compounds; about 100 (0.036%) were called active. Inconclusive results, whose numbers are uncertain, are shown with a selection of clear calls. The call rests on the fitted dose curve; in most records, active means well fitted inhibition curve with a large enough effect in the signal ratio, with a control signal flat (not every such curve was filed as active); inconclusive means small, poorly fitted or top-dose-only effect, or effect the other way, or a change in a side signal; inactive means no such curve, though single readings can be large or run the other way; the % refers to the signal ratio. Where the call is inconclusive, the potency comes from a doubtful curve fit. “Side channel” marks fits to a control or component signal instead of the main read-out.

Biological target: Muscleblind-like protein 1 (Homo sapiens) (UniProt Q9NR56)
Test: qHTS Assay for Inhibitors of MBNL1-poly(CUG) RNA binding
Settings: TR-FRET MBNL1-His/biotin-(CUG)12 binding, 665/545 ratio; activity change, negative = inhibition: at 57.5 µM (top of the series)
Procedure, shortened: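 Inhibition of protein-RNA binding appears as loss of TR-FRET between terbium anti-His antibody on MBNL1-His and streptavidin-XL665 on biotin-(CUG)12. Activity is normalized to buffer-only and uninhibited-complex controls.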
On the % scale 0 is the no-effect control and ±100 the full control effect; potency means the concentration at half of the fitted maximal effect; tags describe the fitted curve by direction and shape or compound fluorescence and quenching.

Sequence of UniProt Q9NR56 (Q9NR56 whole entry, looked up): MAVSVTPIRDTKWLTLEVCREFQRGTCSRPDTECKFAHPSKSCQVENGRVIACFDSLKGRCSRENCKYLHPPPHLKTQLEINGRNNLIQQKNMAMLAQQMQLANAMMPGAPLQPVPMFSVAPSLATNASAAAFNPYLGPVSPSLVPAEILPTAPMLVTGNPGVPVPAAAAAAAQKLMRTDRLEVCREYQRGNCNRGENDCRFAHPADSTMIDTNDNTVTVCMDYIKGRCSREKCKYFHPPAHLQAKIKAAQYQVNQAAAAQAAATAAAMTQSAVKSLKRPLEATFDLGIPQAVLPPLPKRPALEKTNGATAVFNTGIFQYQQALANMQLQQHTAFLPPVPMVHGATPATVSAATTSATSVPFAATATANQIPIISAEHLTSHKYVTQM

Compound	Potency	activity change, negative = inhibition
O=C(N/N=C\C=C\c1ccco1)c1cc(-c2ccc3ccccc3c2)n[nH]1	inactive	
Cc1ccc([N+](=O)[O-])cc1NC(=O)C(C)NS(=O)(=O)c1ccc(F)cc1 (stereo not given)	inactive	
Cc1c(C#N)c(N)c(C(=O)c2ccccc2)n1Cc1ccccc1	inconclusive: 15.8 µM [quencher, side channel, single point]	
O=S(=O)(N/N=C/c1ccc(Cl)cc1)c1ccc(Cc2ncc(C(F)(F)F)cc2Cl)s1	inactive	
COc1ccc(NC(=O)c2cc(-c3ccc(C)cc3)on2)cc1OC	inactive	
CC(C)(O)C(=O)N=Nc1c(O)[nH]c2ccccc12	inconclusive: 8.91 µM [quencher, side channel, partial curve]	
COC(=O)c1sccc1NC(=S)Nc1cc(C)cc(C)c1	inactive	
Cc1cccn2c(=O)c3cc(C(=O)NCCN4CCOCC4)c(=N)n(CCCN4CCOCC4)c3nc12	inconclusive: 15.8 µM [quencher, side channel, partial curve]	
O=C(CCC(=O)Nc1ccccc1)N/N=C/c1ccncc1	inconclusive: 7.08 µM [quencher, side channel, partial curve]	
COC(=O)c1cc(/C=C/c2ccccc2)on1	inconclusive: 10 µM [quencher, side channel, partial curve]	
Cc1cc2ccccn2c1C(=O)c1ccc([N+](=O)[O-])o1	inconclusive: 7.94 µM [quencher, side channel, full curve]	
COc1ccc(CC(NC(C)=O)C(=O)NC2CCN(c3c(Cc4ccccc4)c(C)nc4ncnn34)CC2)cc1OC (stereo not given)	inconclusive: 100 µM [inhibitor, partial curve, poor fit]	
Cc1cc([N+](=O)[O-])nn1CCCC(=O)Nc1ccc2c(c1)OCO2	inconclusive: 39.8 µM [quencher, side channel, partial curve, poor fit]	
Cc1ccc(NC(=O)CCN2C(=O)C3C4CCC(C4)C3C2=O)cc1[N+](=O)[O-] (stereo not given)	inconclusive: 35.5 µM [quencher, single point]	
O=C1NC(=O)/C(=C/c2ccc(O)cc2)S1	inconclusive: 25.1 µM [quencher, side channel, partial curve]	
O=C(CN1CCN(S(=O)(=O)c2ccc(Br)cc2)CC1)N/N=C/c1ccncc1	inconclusive: 39.8 µM [quencher, side channel, single point]	
CC1=NNC(=O)C1CCC(=O)N/N=C\c1ccc(Cl)c(Cl)c1 (stereo not given)	inconclusive: 31.6 µM [quencher, side channel, single point]	
Cc1ccc(NC(=O)CSc2nnc(C)c(=O)n2N)c(C)c1	inconclusive: 1.41 µM [fluorescent, side channel, full curve]	
COc1ccc(C2(CNC(=O)c3cccc([N+](=O)[O-])c3)CCOCC2)cc1		inconclusive: 32.5% [activator]
Cc1ccc(C(=O)COC(=O)c2cccs2)cc1	inconclusive: 25.1 µM [quencher, side channel, single point]	
Cc1cc(C(=O)CCl)c(C)n1-c1cccc([N+](=O)[O-])c1	inactive	
Cn1c2ccccc2c(=O)c2cc(C#Cc3ccc(N)cc3)ccc21	inconclusive: 28.2 µM [quencher, single point]	

Compound	Potency	activity change, negative = inhibition
CC(C)CNC(=O)c1cc([N+](=O)[O-])ccc1N1CCCCC1	inconclusive: 15.8 µM [quencher, side channel, partial curve]	
CC(=O)N1CCc2cc(S(=O)(=O)CCC(=O)O)ccc21	inactive	
CCOC(=O)CNC(=O)CN1C(=O)CCS(=O)(=O)c2ccccc21	inconclusive: 28.2 µM [quencher, side channel, single point]	
O=C1c2cccc3c(Cl)ccc(c23)C(=O)N1O	inconclusive: 28.2 µM [quencher, side channel, partial curve]	
Cc1cccc(N(C)C(=O)CCS(=O)(=O)c2cccc3nonc23)c1	inconclusive: 14.1 µM [quencher, partial curve]	
CCCN1C2CCCC1CC(NC(=O)c1ccc(OC)cc1)C2 (stereo not given)	inactive	
Cc1ccc(Nc2c3c(nc4ncnn24)CC(C)CC3)cc1 (stereo not given)	inactive	
O=C(NCCCc1ccccc1)c1cccc([N+](=O)[O-])c1	inconclusive: 17.8 µM [quencher, side channel, partial curve]	
CCCCc1c(O)c2ccccc2n(CCCC)c1=O	inactive	
CCN(CC)S(=O)(=O)c1ccc(Cl)c(NC(=O)COc2ccc3c(C)cc(=O)oc3c2)c1	inactive	
O=C(Nc1ccc(CN2CCOCC2)cc1)c1cccc(F)c1	inconclusive: 0.794 µM [quencher, side channel, full curve, poor fit]	
Cc1cc(C(=O)N/N=C/c2ccc(N(C)C)cc2)c2ccccc2n1	inconclusive: 15.8 µM [quencher, side channel, partial curve]	
N=C(c1ccc([N+](=O)[O-])cc1)N1CCCCC1	inconclusive: 15.8 µM [quencher, side channel, partial curve]	
CCCCN1C(=S)SC(C)(C)C1/[N+]([O-])=C/c1cccnc1 (stereo not given)	inactive	
COc1ccc(NC(=O)CN(C)S(=O)(=O)c2cccc3nsnc23)cc1OC	inconclusive: 2.82 µM [quencher, side channel, partial curve]	
Cc1ccc(NC(=O)NC2=N/C(=C(/C#N)C(=O)N3CCCC3)c3ccccc32)cc1	inconclusive: 14.1 µM [quencher, side channel, partial curve]	
CC(=O)Nc1ccc(C(=O)NCCCOC(C)C)cc1	inactive	
Cc1cc(C(=O)COc2cccc3cccnc23)c(C)n1C	inconclusive: 25.1 µM [quencher, side channel, partial curve]	
NS(=O)(=O)c1ccc(CNc2ncnc3sccc23)cc1	inactive	
CCC(=O)Nc1c(S(=O)(=O)c2ccccc2)c2nc3ccccc3nc2n1C(C)c1ccccc1 (stereo not given)	inconclusive: 31.6 µM [quencher, side channel, single point]	
Cc1cccc(C)c1OCC(O)CNS(=O)(=O)c1ccccc1C(=O)N1CCCCC1 (stereo not given)	inconclusive: 7.08 µM [quencher, side channel, single point]	
Cn1cccc1/C=C1/SC(=S)N(CC(=O)O)C1=O	inconclusive: 15.8 µM [quencher, side channel, partial curve]	

Compound	Potency	activity change, negative = inhibition
N#CCCn1cc(C(=O)N2CCCCC2)c(-c2cccc([N+](=O)[O-])c2)n1	inconclusive: 15.8 µM [quencher, side channel, partial curve]	
Cc1ccc(S(=O)(=O)CCC(=O)Nc2nc(-c3cccnc3)cs2)cc1	inactive	
CCOC(=O)/C(C#N)=C/C=C1\C=Cc2ccccc2N1CC	inconclusive: 14.1 µM [quencher, side channel, partial curve]	
C/C(=N\NC(=O)c1nnn(-c2nonc2N)c1CN(C)c1ccccc1)c1cccs1	inconclusive: 3.98 µM [fluorescent, side channel, single point]	
COc1ccc(C(=O)NCc2ccccc2OC)c(OC)c1	inactive	
CCOC(=O)c1sc(NC(=S)NC(=O)c2ccco2)nc1C	inactive	
O=C(Nc1c2c(nn1-c1ccccc1)CS(=O)(=O)C2)c1ccco1	inactive	
Cc1cccc(Nc2nnc(SCC(=O)Nc3ccccc3[N+](=O)[O-])s2)c1C	inconclusive: 5.01 µM [quencher, side channel, full curve]	
Cc1ccc(NC(=O)CCN2C(=O)CSC2=O)cc1	inconclusive: 63.1 µM [inhibitor, single point]	
Cc1c(O)c(=O)ccn1C	inactive	
C/C(CC(=O)Nc1cccc(F)c1)=N\NC(=O)C(=O)NC1CCCCC1	inconclusive: 28.2 µM [quencher, side channel, partial curve]	
CCOC(=O)C1CCCN(C(=O)CN2C(=O)c3ccccc3C2=O)C1 (stereo not given)	inconclusive: 14.1 µM [quencher, partial curve]	
COc1ccccc1NS(=O)(=O)c1cc(NC(=O)c2ccncc2)ccc1N1CCOCC1	inactive	
COC(=O)/C(C#N)=C/c1c(N2CCCCCC2)nc2ccccn2c1=O	inconclusive: 17.8 µM [quencher, side channel, single point]	
O=C(CC(=O)N/N=C\c1ccc([N+](=O)[O-])cc1)NCCc1ccccc1	inconclusive: 15.8 µM [quencher, partial curve]	
NC(=O)Cn1c(O)c(N=NC(=O)CNC(=O)/C=C/c2ccccc2)c2ccccc21	inconclusive: 12.6 µM [quencher, side channel, partial curve]	
CCOC(=O)Cc1nnc2c(Nc3ccc(C)cc3)nc3nonc3n12	inconclusive: 28.2 µM [quencher, partial curve]	
COc1cc(C(=O)Nc2cccc(-c3cn4cccnc4n3)c2)cc(OC)c1OC	inconclusive: 28.2 µM [quencher, side channel, partial curve]	
CCc1ccc(-c2cc(C)no2)cc1S(=O)(=O)N1CCN(c2ccccn2)CC1	inactive	
CN(C)S(=O)(=O)c1ccc(C(=O)OCc2ccc([N+](=O)[O-])cc2)cc1	inconclusive: 11.2 µM [quencher, side channel, partial curve]	
COc1ccc(/C=N/Nc2nonc2N)cc1OC	inconclusive: 25.1 µM [quencher, side channel, single point]	
